{"source": "the BET-seq Pho4 binding data (Le et al. 2018)", "note": "Some of the results follow. These are noisy estimates, calculated here from bound and input reads."}
{"biological_target": "T1, Pho4 (S. cerevisiae) (UniProt P07270)", "T1 sequence": "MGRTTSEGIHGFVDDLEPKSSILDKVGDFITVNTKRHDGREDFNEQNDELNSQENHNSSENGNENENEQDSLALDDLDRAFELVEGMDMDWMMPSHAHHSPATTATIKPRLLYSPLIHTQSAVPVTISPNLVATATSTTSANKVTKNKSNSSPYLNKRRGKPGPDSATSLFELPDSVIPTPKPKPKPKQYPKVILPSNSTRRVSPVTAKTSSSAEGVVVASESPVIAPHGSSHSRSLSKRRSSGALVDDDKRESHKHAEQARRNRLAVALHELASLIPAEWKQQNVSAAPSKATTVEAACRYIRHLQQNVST", "experiment": "relative binding free energy (BET-seq); higher = weaker binding", "settings": "reference: library average", "units": {"relative binding free energy": "kcal/mol"}}
{"sequence": "TTGAGCACGTGTGGCG", "relative binding free energy": -0.15}
{"sequence": "ACGGTCACGTGTCGGT", "relative binding free energy": 0.02}
{"sequence": "TGAGCCACGTGGGTAT", "relative binding free energy": -0.13}
{"sequence": "TTGTGCACGTGTCGGG", "relative binding free energy": 0.04}
{"sequence": "GGGTGCACGTGATGCG", "relative binding free energy": 0.03}
{"sequence": "GCAGGCACGTGGGCGC", "relative binding free energy": -0.11}
{"sequence": "ATGGGCACGTGGTCTA", "relative binding free energy": -0.22}
{"sequence": "TCTGGCACGTGCGTTG", "relative binding free energy": -0.06}
{"sequence": "GGACTCACGTGGTTGG", "relative binding free energy": 0.14}
{"sequence": "ATATACACGTGTGGGG", "relative binding free energy": -0.09}
{"sequence": "TTTGCCACGTGTGTGC", "relative binding free energy": -0.03}
{"sequence": "GTGTTCACGTGGTAGA", "relative binding free energy": 0.32}
{"sequence": "CGGTTCACGTGGTGTA", "relative binding free energy": 0.13}
{"sequence": "TTTACCACGTGAGGGA", "relative binding free energy": 0.28}
{"sequence": "GGCGGCACGTGGTTTG", "relative binding free energy": -0.14}
{"sequence": "AAATGCACGTGTTTCG", "relative binding free energy": 0}
{"sequence": "TTATTCACGTGTCTTT", "relative binding free energy": 0.33}
{"sequence": "TTTAGCACGTGCTGTA", "relative binding free energy": -0.15}
{"sequence": "GCTGGCACGTGTATGG", "relative binding free energy": -0.01}
{"sequence": "TTTCTCACGTGGCTGT", "relative binding free energy": -0.01}
{"sequence": "TTGTACACGTGTCTTT", "relative binding free energy": 0.13}
{"sequence": "GTGTGCACGTGCGGCG", "relative binding free energy": -0.15}
{"sequence": "TTATACACGTGTGCAT", "relative binding free energy": 0.01}
{"sequence": "GTGTTCACGTGAAACG", "relative binding free energy": 0.41}
{"sequence": "TATCGCACGTGTTTAT", "relative binding free energy": -0.07}
{"sequence": "ATCGGCACGTGAGGGC", "relative binding free energy": -0.02}
{"sequence": "ATTTTCACGTGTAATG", "relative binding free energy": 0.12}
{"sequence": "TAATACACGTGAAGGT", "relative binding free energy": 0.43}
{"sequence": "AGGTACACGTGCAGGA", "relative binding free energy": 0.1}
{"sequence": "GGGTACACGTGGTGTT", "relative binding free energy": 0.05}
{"sequence": "TGTGCCACGTGTTGGC", "relative binding free energy": -0.06}
{"sequence": "CGGGGCACGTGCGGCA", "relative binding free energy": -0.18}
{"sequence": "CTTATCACGTGTATGA", "relative binding free energy": 0.1}
{"sequence": "TGTTACACGTGTCCTG", "relative binding free energy": 0.16}
{"sequence": "TGGACCACGTGAGAGT", "relative binding free energy": 0.24}
{"sequence": "GTTTACACGTGCTGTG", "relative binding free energy": -0.01}
{"sequence": "TGGTGCACGTGGCCAG", "relative binding free energy": -0.17}
{"sequence": "AGTTTCACGTGTATGC", "relative binding free energy": 0.41}
{"sequence": "GGGGACACGTGATGTT", "relative binding free energy": 0.22}
{"sequence": "GGTTTCACGTGTCTTA", "relative binding free energy": 0.36}
{"sequence": "ATTGTCACGTGTGTTG", "relative binding free energy": 0.07}
{"sequence": "GGTGTCACGTGGTCTA", "relative binding free energy": 0.02}
{"sequence": "TTCAGCACGTGGTATT", "relative binding free energy": -0.22}
{"sequence": "TAATTCACGTGTATGT", "relative binding free energy": 0.2}
{"sequence": "GGAAGCACGTGGGGTG", "relative binding free energy": -0.21}
{"sequence": "GGTTGCACGTGATCTA", "relative binding free energy": 0.12}
{"sequence": "GGTCTCACGTGGGTGC", "relative binding free energy": 0.14}
{"sequence": "AAGTACACGTGGGGAT", "relative binding free energy": 0.08}
{"sequence": "TCAGGCACGTGGGCGT", "relative binding free energy": -0.42}
{"sequence": "GTGTACACGTGAAGTT", "relative binding free energy": 0.19}
{"sequence": "CCGGGCACGTGGGTAG", "relative binding free energy": -0.21}
{"sequence": "ATATGCACGTGGTGGT", "relative binding free energy": -0.17}
{"sequence": "TAGGTCACGTGTAGAA", "relative binding free energy": 0.1}
{"sequence": "TTGGCCACGTGCTGAG", "relative binding free energy": 0.08}
{"sequence": "GTAGACACGTGGGAGC", "relative binding free energy": 0.13}
{"sequence": "TGTAGCACGTGATTTT", "relative binding free energy": 0.2}
{"sequence": "ATGTACACGTGTTGTG", "relative binding free energy": -0.06}
{"sequence": "TTCAGCACGTGGTTCT", "relative binding free energy": 0.05}
{"sequence": "TTGTTCACGTGTGTAA", "relative binding free energy": 0.31}
{"sequence": "AATCGCACGTGGGAGT", "relative binding free energy": -0.02}
{"sequence": "TTCGGCACGTGTGTGG", "relative binding free energy": 0.01}
{"sequence": "TTGGGCACGTGTTCTC", "relative binding free energy": -0.05}
{"sequence": "GGGGGCACGTGTGAGT", "relative binding free energy": 0.07}
{"sequence": "GGTAGCACGTGATTAT", "relative binding free energy": 0.04}
{"sequence": "GTGTTCACGTGGTGAG", "relative binding free energy": 0.32}
{"sequence": "TGGCTCACGTGATGTG", "relative binding free energy": 0.36}
{"sequence": "AGTGACACGTGTAAGG", "relative binding free energy": -0.01}
{"sequence": "CTTTGCACGTGGATGT", "relative binding free energy": -0.02}
{"sequence": "TGGAACACGTGGTATT", "relative binding free energy": 0.07}
{"sequence": "GGATGCACGTGATTGC", "relative binding free energy": 0.13}
{"sequence": "TAGCGCACGTGCGGGT", "relative binding free energy": -0.15}
{"sequence": "GGTTTCACGTGGGCAC", "relative binding free energy": 0.3}
{"sequence": "TTATCCACGTGTTATA", "relative binding free energy": 0.04}
{"sequence": "AGATTCACGTGATTTA", "relative binding free energy": 0.28}
{"sequence": "TATGGCACGTGTCCTT", "relative binding free energy": 0.08}
{"sequence": "GTTAGCACGTGCTATT", "relative binding free energy": -0.06}
{"sequence": "TGTCTCACGTGGTAAG", "relative binding free energy": 0.18}
{"sequence": "ATGGTCACGTGTCAGG", "relative binding free energy": 0.14}
{"sequence": "GGTGGCACGTGCAGTG", "relative binding free energy": -0.09}
{"sequence": "TGAGACACGTGCTGGT", "relative binding free energy": -0.09}
{"sequence": "GGAAGCACGTGGGGTT", "relative binding free energy": -0.11}
{"sequence": "TAAAGCACGTGATAGT", "relative binding free energy": -0.1}
{"sequence": "ACGGGCACGTGTCAGG", "relative binding free energy": -0.05}
{"sequence": "TATGTCACGTGTTTCT", "relative binding free energy": 0.07}
{"sequence": "AGAATCACGTGGGGGG", "relative binding free energy": -0.03}
{"sequence": "GGGTACACGTGATGAA", "relative binding free energy": 0.24}
{"sequence": "CAGGGCACGTGTGCGA", "relative binding free energy": -0.09}
{"sequence": "GTATGCACGTGTTCTA", "relative binding free energy": 0.02}
{"sequence": "GGGCTCACGTGGTAAA", "relative binding free energy": 0.2}
{"sequence": "TTTTGCACGTGGAGTT", "relative binding free energy": 0.1}
{"sequence": "TCGGACACGTGGACGG", "relative binding free energy": 0.24}
{"sequence": "TGCGTCACGTGGAGCT", "relative binding free energy": -0.03}
{"sequence": "ATTAGCACGTGTAAGG", "relative binding free energy": 0.09}
{"sequence": "TTACGCACGTGGAAGG", "relative binding free energy": -0.05}
{"sequence": "AATTACACGTGTTGCT", "relative binding free energy": 0.19}
{"sequence": "GATCGCACGTGGATGT", "relative binding free energy": 0.12}
{"sequence": "GCGAGCACGTGAGGTT", "relative binding free energy": 0.36}
{"sequence": "TCTTTCACGTGTTTAG", "relative binding free energy": 0.35}
{"sequence": "ATACGCACGTGTGTTG", "relative binding free energy": -0.18}
{"sequence": "GTGTACACGTGGGTTT", "relative binding free energy": -0.04}
{"sequence": "TTATTCACGTGGGACA", "relative binding free energy": 0.06}
{"sequence": "CGCATCACGTGTGTGG", "relative binding free energy": 0.11}
{"sequence": "AACGGCACGTGGGGGT", "relative binding free energy": -0.24}
{"sequence": "GTTGTCACGTGACGGG", "relative binding free energy": 0.22}
{"sequence": "TATTGCACGTGATGAG", "relative binding free energy": 0.07}
{"sequence": "TAATTCACGTGTAGTC", "relative binding free energy": 0.35}
{"sequence": "GTCTTCACGTGTATAG", "relative binding free energy": 0.31}
{"sequence": "TTTGGCACGTGCAGAG", "relative binding free energy": -0.16}
{"sequence": "GAATGCACGTGTTTTA", "relative binding free energy": 0.1}
{"sequence": "CTTTACACGTGGGTTT", "relative binding free energy": 0}
{"sequence": "ATGTTCACGTGGGAGG", "relative binding free energy": 0.17}
{"sequence": "ATTTTCACGTGCTGGC", "relative binding free energy": 0.24}
{"sequence": "GGGTTCACGTGCGTAA", "relative binding free energy": 0.3}
{"sequence": "TAATCCACGTGGGGAT", "relative binding free energy": 0}
{"sequence": "GATAGCACGTGATAGG", "relative binding free energy": 0.08}
{"sequence": "TCTGGCACGTGATGCG", "relative binding free energy": 0.04}
{"sequence": "AGGTGCACGTGGGTGT", "relative binding free energy": -0.12}
{"sequence": "AGTTACACGTGAAGTA", "relative binding free energy": 0.29}
{"sequence": "GAGGTCACGTGGATGG", "relative binding free energy": 0.25}
{"sequence": "TCGGTCACGTGTTGGT", "relative binding free energy": 0.23}
{"sequence": "TGTATCACGTGCCTGT", "relative binding free energy": -0.01}
{"sequence": "GTGCTCACGTGATTTT", "relative binding free energy": 0.38}
{"sequence": "GATGGCACGTGTCAGG", "relative binding free energy": 0.02}
{"sequence": "GATAGCACGTGGTGAA", "relative binding free energy": 0.16}
{"sequence": "TTGTACACGTGCCTGG", "relative binding free energy": 0.05}
{"sequence": "GGGGGCACGTGCCGCG", "relative binding free energy": -0.32}
{"sequence": "TAGGTCACGTGTTAGC", "relative binding free energy": 0.22}
{"sequence": "TAGGACACGTGTGAGG", "relative binding free energy": 0.2}
{"sequence": "TGGGTCACGTGAAAGG", "relative binding free energy": 0.34}
{"sequence": "GTGATCACGTGGGAGG", "relative binding free energy": 0.02}
{"sequence": "CAGAACACGTGTTGTG", "relative binding free energy": -0.12}
{"sequence": "TAGGCCACGTGGGTAT", "relative binding free energy": -0.33}
{"sequence": "TAAATCACGTGGATTG", "relative binding free energy": 0.05}
{"sequence": "GAGGTCACGTGATTAG", "relative binding free energy": 0.37}
{"sequence": "GATTCCACGTGGGGCG", "relative binding free energy": 0.14}
{"sequence": "TGAGGCACGTGTTCGT", "relative binding free energy": -0.06}
{"sequence": "ATCAGCACGTGCGTGT", "relative binding free energy": -0.09}
{"sequence": "GGGATCACGTGTGCGT", "relative binding free energy": 0.24}
{"sequence": "TATAACACGTGAGTAG", "relative binding free energy": 0.13}
{"sequence": "AGATGCACGTGTGGAC", "relative binding free energy": 0}
{"sequence": "CAGTACACGTGGATGT", "relative binding free energy": 0.07}
{"sequence": "GCAGGCACGTGTGGAA", "relative binding free energy": 0}
{"sequence": "AGAGACACGTGTGGGG", "relative binding free energy": 0.07}
{"sequence": "AGGTCCACGTGGGGAG", "relative binding free energy": -0.05}
{"sequence": "TATATCACGTGCGTGC", "relative binding free energy": 0.1}
{"sequence": "GTTAACACGTGGTGGC", "relative binding free energy": 0.11}
